Measured values: patent US20260240844A1, “INHIBITORS OF CHD1L AND USES THEREOF” (The Regents of the University of Colorado, a body corporate, priority 2023, published 2026)

System: γ-H2AX foci in SUM149PT cells
Details: for DNA damage (γ-H2AX foci): single agent; for DNA damage in combination: combined with Compound 6

SMILES | DNA damage (γ-H2AX foci) | Bliss Synergy Score, γ-H2AX foci (SUM149PT cells, Compound 6 combined with olaparib) | DNA damage in combination (SUM149PT cells)
Cc1cc(Nc2ccc(NC(=O)Cc3cc(Br)cs3)cc2)nc(N2CCCC2)n1 [Compound 6.11, 2-(4-bromothiophen-2-yl)-N-(4-((6-methyl-2-(pyrrolidin-1-yl)pyrimidin-4-yl)amino)phenyl)acetamide] | does not induce DNA damage | – | –
Cc1cc(Nc2ccc(NC(=O)Cc3cccs3)cc2)nc(N2CCCC2)n1 [Compound 6, N-(4-((6-methyl-2-(pyrrolidin-1-yl)pyrimidin-4-yl)amino)phenyl)-2-(thiophen-2-yl)acetamide] | does not cause DNA damage | 11.19 | –
COc1cccc2c1C(=O)c1c(O)c3c(c(O)c1C2=O)C[C@@](O)(C(=O)CO)C[C@@H]3O[C@H]1C[C@H](N)[C@H](O)[C@H](C)O1 [doxorubicin] | – | – | synergistic increase in DNA damage
O=c1[nH]cc(F)c(=O)[nH]1 [Compound 5-FU, 5-fluorouracil] | – | – | synergistic increase in DNA damage
